According to PubChem BioAssay AID540267 (National Center for Advancing Translational Sciences (NCATS), 2011):
In all, about 340,000 compounds went through this assay and about 530 (0.16%) were called active. The inconclusive results got no clear call from the source; some entries with a clear call stand among them for comparison. No stated cut-off is given here; in the data, active means activity change below about -80%; inconclusive means between about -30% and that limit; inactive means weaker than that.

Assay: Small Molecules that selectively kill Giardia lamblia: qHTS;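 further: parasites exposed to compound for two days anaerobically before the ATP read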
Settings: Giardia lamblia trophozoite viability; at 7.66 µM; stronger effect = lower value
Method in brief: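 Anaerobic 48 hrs incubation at 37 deg C of 100 trophozoites/well with test compounds; ATPLite 1-Step luminescence, 15-30 min RT, reports cellular ATP as viability.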
On the % scale 0 is the no-effect control and ±100 the full control effect.

| Compound | activity change |
| --- | --- |
| COc1ccc(-c2csc(N(CC3CCCO3)C(=O)c3ccc(C)cc3)n2)cc1 (centres undefined) | inactive: -1.32% |
| Cc1cc(=O)n2nc(N3CCCC(C(=O)N4CCc5ccccc54)C3)sc2n1 (centres undefined) | inconclusive: -34.7% [inhibitor] |
| O=C(CNc1cccc(S(=O)(=O)N2CCCC2)c1)Nc1cccc(Br)c1 | inactive: -0.778% |
| COC(=O)N/C(C)=C1/NC(=O)c2ccccc2C(c2ccccc2)N1 (centres undefined) | inconclusive: -30.8% [inhibitor] |
| Cc1ccc2nc(SCC(=O)Nc3cccc(S(=O)(=O)N(C)C)c3)[nH]c2c1 | inactive: 17% |
| CCOC(=O)/C(C#N)=C\c1cccnc1 | inactive: -18.8% |
| CCN(CC)CCn1c(NS(=O)(=O)c2ccc(C)cc2)nc2ccccc21 | inactive: -0.972% |
| COc1cccc(C(Nc2ccccn2)c2oc(CO)cc(=O)c2O)c1 (centres undefined) | inactive: -5.62% |
| COc1ccc(C)cc1S(=O)(=O)N(C)CC(=O)N1CCCC1 | inactive: -18.6% |
| Cc1cccc2c(=O)c(-c3ccc(Cl)cc3)c(NC(=O)c3ccco3)oc12 | inactive: 16.7% |
| COc1cccc(NC(=O)C(C)SCc2ccccc2)c1 (centres undefined) | inconclusive: -30.9% [inhibitor] |
| O=C(O)c1ccc(CSc2nnc(COc3ccc(Cl)cc3Cl)o2)cc1 | inconclusive: -33% [inhibitor] |
| CC(=O)C1=C(O)C(=O)N(c2ccccn2)C1c1ccccc1[N+](=O)[O-] (centres undefined) | inactive: 5.75% |
| CC(C)(C)NC(=O)CCN(/N=C/c1ccc([N+](=O)[O-])o1)C1=NS(=O)(=O)c2ccccc21 | active: -92.4% |
| Cc1ccccc1-c1nnc(SCC(=O)c2c(N)n(C3CC3)c(=O)[nH]c2=O)o1 | inconclusive: -30.7% [inhibitor] |
| O=C(Nc1nc2ccccc2[nH]1)c1ccccc1OC(F)F | inconclusive: -46.8% [inhibitor] |
| CCOC(=O)CCCCCC(=O)Nc1ccc2c(c1)CC(=O)N([C@H](C)CO)C[C@H](C)[C@H](CN(C)S(=O)(=O)c1ccc(OC)cc1)O2 | inconclusive: -37% [inhibitor] |
| CC(=O)c1cccc(NC(=S)N2CCC(Cc3ccccc3)CC2)c1 | inactive: 3.66% |
| COc1ccc(NC(=O)/C(C#N)=C/c2ccc(-c3ccc(Cl)c(C(=O)O)c3)o2)cc1 | inconclusive: -52.3% [inhibitor] |
| O=C(c1cc([N+](=O)[O-])cc([N+](=O)[O-])c1)N(Cc1nnc(-c2ccccc2Cl)o1)C1CC1 | inconclusive: -40.3% [inhibitor] |
| CC(C)n1c(CN2CCN(Cc3ccccc3)CC2)nc2ccccc21 | inconclusive: -39% [inhibitor] |
| COc1cc2nc(N3CCN(c4cc(C)ccc4C)CC3)nc(N)c2cc1OC | inconclusive: -56.5% [inhibitor] |
| c1nc(CCO[C@H]2CCCCO2)cc2cc3c(cc12)OCO3 | inconclusive: -34.8% [inhibitor] |
| Cc1ccc(-c2nnn(CC(=O)N(CC(=O)NCC3CCCO3)c3ccc(F)c(Cl)c3)n2)o1 (centres undefined) | inactive: -0.786% |
| COc1ccc(-c2cc(=O)c3c(OC)c(OC)c(OC)c(OC)c3o2)cc1 | inconclusive: -30.9% [inhibitor] |
| CCCCn1c(N)c(N(CC(C)C)C(=O)c2cc(-c3ccncc3)nc3ccccc23)c(=O)[nH]c1=O | inactive: -3.99% |
| Cc1ccc(C)c(-c2ccc(=O)n(Cc3ccc(F)cc3Cl)n2)c1 | inactive: -3.45% |

| Compound | activity change |
| --- | --- |
| O=C(CN1CCOCC1)NN=C(c1ccccc1)c1ccccc1 | inactive: -3.35% |
| CN(CCO)c1ccc(/C=N/Nc2nncc3ccccc23)cc1 | active: -87.9% |
| COC(=O)CN(c1cc([N+](=O)[O-])ccc1OC)S(C)(=O)=O | inconclusive: -31% [inhibitor] |
| COc1cc(CNc2nnnn2C)cc(OC)c1OC | inconclusive: -45.3% [inhibitor] |
| Cc1ccc(-c2nnc(Cc3ccc(Cl)cc3)o2)cc1 | inactive: 8.9% |
| Cn1c(=O)c2c(ncn2CCC(=O)N/N=C/c2ccccc2)n(C)c1=O | inconclusive: -33.1% [inhibitor] |
| C=CCOc1ccccc1CN(C(=O)CCl)c1ccc2c(c1)OCO2 | inactive: -9.68% |
| COc1ccc(NC(=O)c2ccc(-c3ccccc3)cc2)cc1S(=O)(=O)N1CCOCC1 | inactive: 6.93% |
| Cc1ccc(-c2cc(C(F)(F)F)c(C#N)c(SCCC#N)n2)o1 | inactive: -15.8% |
| CNC(=O)c1c(NC(=O)c2ccco2)sc2c1CCC2 | inconclusive: -35% [inhibitor] |
| CCN(c1ccc(OC)cc1)S(=O)(=O)c1nnc(NC(=O)C2CCCCC2)s1 | inconclusive: -37.5% [inhibitor] |
| Cc1cc2c(cc(C(=O)OC(C(=O)NCC3CCCO3)C(C)C)n2C)o1 (centres undefined) | inactive: 26.2% |
| COC(=O)C1CCN(C(=O)COC(=O)CNS(=O)(=O)c2ccc(SC)c([N+](=O)[O-])c2)CC1 | inconclusive: -31% [inhibitor] |
| CC(C)NC(=O)NC(=O)COC(=O)c1ncc(Cl)c(Cl)c1Cl | inactive: -27.2% |
| O=C(Nc1ccc([N+](=O)[O-])cc1Cl)c1cc(Cl)ccc1O | inconclusive: -61% [inhibitor] |
| Cc1nc(NC(=O)c2c(-c3ccccc3Cl)noc2C)sc1C | inactive: 2.44% |
| CO[C@@]12[C@@H]3N[C@@H]3CN1C1=C(C(=O)C(N)=C(C)C1=O)[C@@H]2COC(N)=O | inactive: -2.49% |
| O=C1c2ccccc2NC(c2ccc3c(c2)OCCO3)N1c1ccc2c(c1)OCCO2 (centres undefined) | inconclusive: -42.7% [inhibitor] |
| CC(C)(C)CC(=O)Nc1nn[nH]n1 | inconclusive: -32.4% [inhibitor] |
| OCCNCc1ccc(-c2ccccc2)cc1 | inactive: 4.14% |
| Cn1cnnc1SCC(=O)Nc1ncc([N+](=O)[O-])s1 | inconclusive: -61.4% [inhibitor] |
| O=C(Nc1ccc(S(=O)(=O)NCc2cccnc2)cc1)c1ccccc1Cl | inactive: -10.8% |
| COc1cccc(/C=N/NC(=O)CSc2ccccc2C)c1OC | inactive: -7.04% |
| COc1ccc(CNC(=O)C2CCCN(S(=O)(=O)c3c(C)nn(C)c3C)C2)cc1 (centres undefined) | inconclusive: -37.2% [inhibitor] |
| O=C1C(Cc2ccccc2)Nc2ncnc(N3CCc4ccccc4C3)c2N1Cc1ccc(Cl)cc1 (centres undefined) | inconclusive: -31.7% [inhibitor] |
| CCOc1cc(/C=C/c2cc(C(=O)O)c3ccccc3n2)ccc1O | inconclusive: -33.8% [inhibitor] |
| CC1(C)C=Cc2c(ccc3c2OC[C@@H](c2ccc(O)cc2O)C3)O1 | inconclusive: -32.8% [inhibitor] |

| Compound | activity change |
| --- | --- |
| COc1ccc(-c2c(-c3ccccc3OC)sc3ccccc23)cc1C=O | inconclusive: -35.7% [inhibitor] |
| COc1ccc(NC(=O)c2[nH]ncc2[N+](=O)[O-])cc1 | inconclusive: -40.2% [inhibitor] |
| CCOC(=O)c1c(C)[nH]c(C)c1S(=O)(=O)N1CCN(c2ccc([N+](=O)[O-])cc2)CC1 | inconclusive: -57.5% [inhibitor] |
| CC(=O)c1cccc(Nc2nc(-c3ccccc3)cs2)c1 | inactive: 6.67% |
| Cc1ccc(OC(C)C(=O)Nc2ccc(F)cc2)c([N+](=O)[O-])n1 (centres undefined) | inconclusive: -40.2% [inhibitor] |
| Cc1ccc(-c2cc(C(=O)N3CCCC3)no2)cc1 | inconclusive: -35.9% [inhibitor] |
| O=C(O)C1=CC[C@@H](c2ccc(Cl)cc2)N(S(=O)(=O)c2ccc(Cl)cc2)[C@H]1c1ccccc1 | inconclusive: -38% [inhibitor] |
| Cc1ccc(NC(=O)Nc2ncccc2C)cc1 | inactive: 4.49% |
| Cc1cc(C)cc(OCC(=O)N/N=C/c2ccc([N+](=O)[O-])o2)c1 | active: -87.8% |
| CN(CC(=O)Nc1ccc(Cl)c(C(F)(F)F)c1)C(=O)CCN1C(=O)C2CCCCC2C1=O (centres undefined) | inactive: 7.75% |
| Cn1ncc([N+](=O)[O-])c1C(=O)Nc1ccc(-c2nc3ccccc3o2)cc1 | inconclusive: -36.6% [inhibitor] |
| CC1CCc2cc(F)cc3c2N1C(=O)C(C(=O)Nc1cnccn1)C3=O (centres undefined) | inconclusive: -32% [inhibitor] |
| Oc1ccc(Cl)cc1CNCc1ccc(C(F)(F)F)cc1 | inconclusive: -33.3% [inhibitor] |
| CN=c1scc(-c2ccccc2F)n1/N=C(\C)c1cccnc1 | inconclusive: -45.1% [inhibitor] |
| O=C(c1ccc(F)cc1)c1ccc(-c2ccc(F)cc2)nc1 | inconclusive: -33.6% [inhibitor] |
| Nc1n[nH]c2cc(=O)n(-c3ccc(Cl)cc3)nc12 | inconclusive: -37.8% [inhibitor] |
| Cc1ccc(S(=O)(=O)N(C)C)cc1NC(=O)[C@H](Cc1ccccc1)N1C(=O)c2ccccc2C1=O | inconclusive: -30.8% [inhibitor] |
| CCn1c(COc2ccccc2)nnc1SCC(=O)Nc1ccc(N2CCOCC2)cc1 | inconclusive: -35.1% [inhibitor] |
| Cc1ccc(C(=O)NCCc2cccs2)cc1 | inconclusive: -39.3% [inhibitor] |
| O=C(O)c1ccc2c(c1)NC(=O)C(N1CCCC1)S2 (centres undefined) | inconclusive: -30.1% [inhibitor] |
| CC(=O)N(CCc1ccccc1C)Cc1cc2cc(C)ccc2[nH]c1=O | inactive: -13.5% |
| Cn1c(=NC(=O)c2ccccc2[N+](=O)[O-])sc2cccc(F)c21 | inactive: -29.3% |
| Clc1ccc(Cl)c(OCCCCN2CCNCC2)c1 | inactive: -8.74% |
| O=C(c1cc2ccccc2o1)c1cccs1 | inactive: 5.87% |
| Cc1ccc(S(=O)(=O)Nc2cccc(-n3cnnn3)c2)cc1 | inconclusive: -34.2% [inhibitor] |
